# Assay results published in the supplement of paper PMC8728848.
# Some of the results follow.
# Tests used:
# Assay in all cases: glycan array binding signal (z-score within array); higher = stronger binding
# Settings in all cases: glycan notation: IUPAC condensed, linker removed
# [1] = target: Gal(b1-4)GlcNAc(b1-2)Man(a1-6)[Man(a1-3)]Man(b1-4)GlcNAc(b1-4)GlcNAc
# In short: (§1)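 Negative Z-scores can be read as non-binding. The Z-score is calculated within each array and then averaged across arrays of one protein sequence at different concentrations or buffers and across linkers. Arrays, 3228 in all, were curated from the Consortium for Functional Glycomics database and kept only where the protein sequence was available.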
# [2] = target: Gal(b1-4)GlcNAc(b1-2)[Gal(b1-4)GlcNAc(b1-4)]Man(a1-3)[Gal(b1-4)GlcNAc(b1-2)Man(a1-6)]Man(b1-4)GlcNAc(b1-4)GlcNAc
# In short: as §1
# [3] = target: Gal(b1-4)GlcNAc(b1-2)[Gal(b1-4)GlcNAc(b1-4)]Man(a1-3)[Gal(b1-4)GlcNAc(b1-2)[Gal(b1-4)GlcNAc(b1-6)]Man(a1-6)]Man(b1-4)GlcNAc(b1-4)GlcNAc
# In short: as §1
# [4] = target: Gal(b1-4)GlcNAc(b1-2)[Gal(b1-4)GlcNAc(b1-4)]Man(a1-3)[GlcNAc(b1-4)][Gal(b1-4)GlcNAc(b1-2)Man(a1-6)]Man(b1-4)GlcNAc(b1-4)GlcNAc
# In short: as §1
# [5] = target: Gal(b1-4)GlcNAc(b1-2)[Gal(b1-4)GlcNAc(b1-4)]Man(a1-3)[GlcNAc(b1-4)][Gal(b1-4)GlcNAc(b1-2)[Gal(b1-4)GlcNAc(b1-6)]Man(a1-6)]Man(b1-4)GlcNAc(b1-4)GlcNAc
# In short: as §1
# [6] = target: Gal(b1-4)GlcNAc(b1-2)[Gal(b1-4)GlcNAc(b1-6)]Man(a1-6)[Gal(b1-4)GlcNAc(b1-2)Man(a1-3)]Man(b1-4)GlcNAc(b1-4)GlcNAc
# In short: as §1
# [7] = target: Gal(b1-4)GlcNAc(b1-2)[Gal(b1-4)GlcNAc(b1-6)]Man(a1-6)[Gal(b1-4)GlcNAc(b1-2)Man(a1-3)]Man(b1-4)GlcNAc(b1-4)[Fuc(a1-6)]GlcNAc
# In short: as §1
# [8] = target: Gal(b1-4)GlcNAc(b1-2)[Gal(b1-4)GlcNAc(b1-6)]Man(a1-6)[GlcNAc(b1-4)][Gal(b1-4)GlcNAc(b1-2)Man(a1-3)]Man(b1-4)GlcNAc(b1-4)GlcNAc
# In short: as §1
# [9] = target: Gal(b1-4)GlcNAc(b1-2)[Gal(b1-4)GlcNAc(b1-6)]Man(a1-6)[GlcNAc(b1-4)][Gal(b1-4)GlcNAc(b1-2)[Gal(b1-4)GlcNAc(b1-4)]Man(a1-3)]Man(b1-4)GlcNAc(b1-4)[Fuc(a1-6)]GlcNAc
# In short: as §1
# [10] = target: Gal(b1-4)GlcNAc(b1-3)Gal(b1-3)GalNAc
# In short: as §1
# [11] = target: Gal(b1-4)GlcNAc(b1-3)Gal(b1-3)GlcNAc
# In short: as §1
# [12] = target: Gal(b1-4)GlcNAc(b1-3)Gal(b1-4)Glc
# In short: as §1
# [13] = target: Gal(b1-4)GlcNAc(b1-3)Gal(b1-4)GlcNAc
# In short: as §1
# [14] = target: Gal(b1-4)GlcNAc(b1-3)Gal(b1-4)GlcNAc(b1-2)Man(a1-3)[Gal(b1-4)GlcNAc(b1-3)Gal(b1-4)GlcNAc(b1-2)Man(a1-6)]Man(b1-4)GlcNAc(b1-4)GlcNAc
# In short: as §1
# [15] = target: Gal(b1-4)GlcNAc(b1-3)Gal(b1-4)GlcNAc(b1-2)Man(a1-3)[Gal(b1-4)GlcNAc(b1-3)Gal(b1-4)GlcNAc(b1-2)Man(a1-6)]Man(b1-4)GlcNAc(b1-4)[Fuc(a1-6)]GlcNAc
# In short: as §1
# [16] = target: Gal(b1-4)GlcNAc(b1-3)Gal(b1-4)GlcNAc(b1-2)[Gal(b1-4)GlcNAc(b1-3)Gal(b1-4)GlcNAc(b1-6)]Man(a1-6)[Gal(b1-4)GlcNAc(b1-3)Gal(b1-4)GlcNAc(b1-2)Man(a1-3)]Man(b1-4)GlcNAc(b1-4)GlcNAc
# In short: as §1
# [17] = target: Gal(b1-4)GlcNAc(b1-3)Gal(b1-4)GlcNAc(b1-2)[Gal(b1-4)GlcNAc(b1-3)Gal(b1-4)GlcNAc(b1-6)]Man(a1-6)[Gal(b1-4)GlcNAc(b1-3)Gal(b1-4)GlcNAc(b1-2)Man(a1-3)]Man(b1-4)GlcNAc(b1-4)[Fuc(a1-6)]GlcNAc
# In short: as §1
# [18] = target: Gal(b1-4)GlcNAc(b1-3)Gal(b1-4)GlcNAc(b1-3)Gal(b1-4)GlcNAc
# In short: as §1
# [19] = target: Gal(b1-4)GlcNAc(b1-3)Gal(b1-4)GlcNAc(b1-3)Gal(b1-4)GlcNAc(b1-2)Man(a1-3)[Gal(b1-4)GlcNAc(b1-3)Gal(b1-4)GlcNAc(b1-3)Gal(b1-4)GlcNAc(b1-2)Man(a1-6)]Man(b1-4)GlcNAc(b1-4)GlcNAc
# In short: as §1
# [20] = target: Gal(b1-4)GlcNAc(b1-3)Gal(b1-4)GlcNAc(b1-3)Gal(b1-4)GlcNAc(b1-2)Man(a1-3)[Gal(b1-4)GlcNAc(b1-3)Gal(b1-4)GlcNAc(b1-3)Gal(b1-4)GlcNAc(b1-2)Man(a1-6)]Man(b1-4)GlcNAc(b1-4)[Fuc(a1-6)]GlcNAc
# In short: as §1
# [21] = target: Gal(b1-4)GlcNAc(b1-3)Gal(b1-4)GlcNAc(b1-3)Gal(b1-4)GlcNAc(b1-2)[Gal(b1-4)GlcNAc(b1-3)Gal(b1-4)GlcNAc(b1-3)Gal(b1-4)GlcNAc(b1-6)]Man(a1-6)[Gal(b1-4)GlcNAc(b1-3)Gal(b1-4)GlcNAc(b1-3)Gal(b1-4)GlcNAc(b1-2)Man(a1-3)]Man(b1-4)GlcNAc(b1-4)[Fuc(a1-6)]GlcNAc
# In short: as §1
# [22] = target: Gal(b1-4)GlcNAc(b1-3)Gal(b1-4)GlcNAc(b1-3)Gal(b1-4)GlcNAc(b1-3)Gal(b1-4)GlcNAc(b1-2)Man(a1-3)[Gal(b1-4)GlcNAc(b1-3)Gal(b1-4)GlcNAc(b1-3)Gal(b1-4)GlcNAc(b1-3)Gal(b1-4)GlcNAc(b1-2)Man(a1-6)]Man(b1-4)GlcNAc(b1-4)GlcNAc
# In short: as §1
binder,measurement,setting,value
PX14375F-bfa-539-21-539 (Bacteroides fragilis) (protein) EDFLQKDPPSSPSQSVFWQKKSDFESALAGTYSVMYSGVFSQIMPCLDGLTDNAIVQHSEGTYGWAKTIAQGDLTPNQGGFVTDIYGNCYKGIARVHILMEQLDQYTGSDISADEKKFMLAQCKALRGYFYSWLYQCYKEVPVVTQSLDLNTMYQPKATRAEVLNRVMTDYDEAISELPDKLYSDSQTSGRFTVSAVKALKARILLFDAYDSNGKAISSKMEEVLTLLQSIKGYSLAARVRDNFISEKQLASPEIMFSVRFLRPNLTHSMDLYYGAWAVLDPTRNMVDAFECTDGKPWGESPLTVRPDESILYGNDDALKKAERAKMFMNRDRRLYESVNHSMMANFVDDGFKDEEVQVNESNNKGPTGFSALKYVQPTDVTPGYSTVSDADIVVLRYAHVLLMIAEAENEAHGATTTALNAINEVRTRSGQPAIEAGISQDDLRERIRNEWRIETCFEGLRYFQLKRWKLMDKRVNGVEDPAYPGYIKVYKPAFEFFPIPQSEIDKAGGVLKQDPAYE,glycan array binding signal (z-score),[1],-0.85
same,glycan array binding signal (z-score),[2],0.363
same,glycan array binding signal (z-score),[3],-0.785
same,glycan array binding signal (z-score),[4],-0.165
same,glycan array binding signal (z-score),[5],-0.413
same,glycan array binding signal (z-score),[6],-0.067
same,glycan array binding signal (z-score),[7],2.08
same,glycan array binding signal (z-score),[8],-0.859
same,glycan array binding signal (z-score),[9],0.128
same,glycan array binding signal (z-score),[10],-0.78
same,glycan array binding signal (z-score),[11],-0.243
same,glycan array binding signal (z-score),[12],-0.293
same,glycan array binding signal (z-score),[13],-0.648
same,glycan array binding signal (z-score),[14],1.54
same,glycan array binding signal (z-score),[15],-0.107
same,glycan array binding signal (z-score),[16],1.84
same,glycan array binding signal (z-score),[17],5.95
same,glycan array binding signal (z-score),[18],0.625
same,glycan array binding signal (z-score),[19],0.782
same,glycan array binding signal (z-score),[20],1.81
same,glycan array binding signal (z-score),[21],0.734
same,glycan array binding signal (z-score),[22],0.871
